Screen size: about 2,200 compounds; fewer than 10 were called active. This is one part of the list. Entries without a call are filed as inconclusive in the source.

The target of the assay is GTPase KRas (Homo sapiens) (UniProt P01116). The experiment in a line: Covalent labelling of cysteine mutants by fragments, read by mass spectrometry (AID 2202238). Set-up: protein at 5 µM with 500 µM competing thiol for 1.5 h. The conditions noted are these: KRAS G12D cysteine mutants, disulfide tethering, MALDI-TOF labeling; stronger effect = higher value; H27C mutant labeling; fragment at 500 µM.
Chain of UniProt P01116 (P01116 whole entry, looked up, the tested form may be a part): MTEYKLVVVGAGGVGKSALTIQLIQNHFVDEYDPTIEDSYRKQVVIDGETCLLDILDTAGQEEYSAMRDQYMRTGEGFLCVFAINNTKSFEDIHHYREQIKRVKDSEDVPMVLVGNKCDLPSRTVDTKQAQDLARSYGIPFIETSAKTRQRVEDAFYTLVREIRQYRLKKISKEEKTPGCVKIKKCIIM
`CC(C)c1onc(-c2ccccc2)c1C(=O)NCCS` came in with a percent labeling of 28.3%.

Regarding `Cc1c(C(=O)NCCS)oc(=O)c2ccccc12`, the percent labeling was found to be 31.8%.

In the case of `O=C(CCS)Nc1ccc(OC(F)F)nc1`, the percent labeling is 25%.

For `COc1ncc(C(=O)NCCS)c(C(F)F)n1`, the percent labeling worked out at 39.4%.

Molecule `O=C(CNC(=O)c1cccc2[nH]ccc12)NCCS` showed a percent labeling of 33.2%.

The molecule `O=C(CCS)NCCn1ccn2nccc2c1=O` returned a percent labeling of 26.8%.

The molecule `O=C(NCCS)c1cccc2nc(C(F)F)sc12` registered a percent labeling of 40.4%.

`Cn1cc(C(=O)NCCS)c(-c2coc3ccccc23)n1` showed a percent labeling of 32.1%.

`O=C(CCS)Nc1ccc2nc[nH]c(=O)c2c1` had a percent labeling of 51.1%.

`O=C(NCCS)C1(c2cccc(Br)c2)CCOCC1` came in with a percent labeling of 28.8%.

As for `CC(C(=O)NCCS)N1CCC(Cc2ccccc2)CC1` (stereo unspecified), the percent labeling is 33.8%.

Take `O=C(CCS)Nc1cccc(Cn2nc3ccccn3c2=O)c1`: the percent labeling is 31.6%.

For `O=C(CCS)N1CCN(C(=O)Cc2cccc(F)c2)CC1`, the percent labeling was 42.9%.

With `Cc1cc(CN(C(=O)CCS)C2CC2)cc(S(N)(=O)=O)c1C`, the percent labeling was found to be 41.4%.

`CC(C)c1noc(C2(NC(=O)CCS)CCOCC2)n1` had a percent labeling of 35.2%.

The molecule `CC(C)c1nn(C)c2sc(C(=O)NCCS)cc12` had a percent labeling of 38.7%.

For `O=C(NCCS)c1csc(-c2cc(Br)cs2)n1`, the percent labeling is 27.5%.

`CCc1ncncc1C(=O)NCCS`: the percent labeling turned out to be 38%.

For the molecule `O=C(NCCS)C1COCCN1CC(F)(F)F` (stereo unspecified), the percent labeling turned out to be 30.5%.

`O=C(CCS)NCc1ccn(CC(F)F)n1`: the percent labeling amounted to 34.5%.

Molecule `O=C(NCCS)c1ccn(CCC(F)(F)F)n1` gave a percent labeling of 32.5%.

`Cc1nn(Cn2ccc(C(=O)NCCS)n2)c(C)c1Br` showed a percent labeling of 43.8%.

Regarding `CNC(=O)c1cc(Oc2cccc(NC(=O)CCS)c2)ccn1`, the percent labeling worked out at 38.7%.

Molecule `COc1ccc([C@@H]2C[C@H]2CC(=O)NCCS)cc1` registered a percent labeling of 25.5%.

Turning to `CC(C)(C)c1csc(CC2(O)CC3CCC(C2)N3C(=O)CCS)n1` (stereo unspecified), the percent labeling came to 34.2%.

Molecule `CC(O)C(NC(=O)c1cc(Cl)ccc1Cl)C(=O)NCCS` (stereo unspecified) gave a percent labeling of 31.7%.

In the case of `O=C(NCCS)c1cc(Oc2ccccc2)ccn1`, the percent labeling came to 24.4%.

Turning to `Nc1nc(C2CC2)nc(N2CCN(C(=O)CCS)CC2)n1`, the percent labeling turned out to be 51.4%.

Molecule `N#CCCN(CC1CCN(Cc2ccccc2)CC1)C(=O)CCS` gave a percent labeling of 50.4%.

`COc1ccc2c(c1)CCCC2C(=O)NCCS` (stereo unspecified) yielded a percent labeling of 32.8%.

Molecule `O=C(CCS)N1CCC(O)(Cn2ccnn2)CC1` registered a percent labeling of 29.5%.

On to `O=C(CCNC(=O)c1cnccn1)NCCS`, for which the percent labeling turned out to be 21.1%.

`O=C(CCCN1C(=O)CCc2ccccc21)NCCS`: the percent labeling was determined as 45.7%.

Regarding `COc1ccc(C)cc1-n1cc(C(=O)NCCS)ccc1=O`, the percent labeling was determined as 42.4%.

Molecule `O=C1CC(C(=O)NCCS)(c2ccccc2)CN1` (stereo unspecified) returned a percent labeling of 32.2%.

On to `Cn1cc(CCC(=O)NCCS)c2ccccc21`, for which the percent labeling came to 19.7%.

On to `O=C(CCS)NCCc1ccc2ncccc2c1`, for which the percent labeling turned out to be 33.3%.

In the case of `O=C(NCCS)C1(c2ccccc2)CC2(CCC2)C1`, the percent labeling was found to be 21.3%.

The molecule `O=C(CCS)NCC1CCN(C(=O)c2ccccc2)CC1` came in with a percent labeling of 39.6%.

Molecule `CC(Cn1cccn1)(NC(=O)CCS)C(N)=O` (stereo unspecified) came in with a percent labeling of 23.5%.

In the case of `O=C(CCS)NCc1cccc(-c2ccccn2)c1`, the percent labeling stood at 44.1%.

Molecule `O=C(CCS)N1CCC(Oc2ccccc2Cl)CC1` showed a percent labeling of 53%.

`Cc1c(C(=O)NCCS)ccc2c1OC(F)(F)O2`: the percent labeling worked out at 25.3%.

Turning to `Cc1nc(-c2c[nH]c(C(=O)NCCS)c2)cs1`, the percent labeling worked out at 34.4%.

`O=C(NCCS)[C@@H]1OCC[C@@H]1Cn1cccn1`: the percent labeling is 20.7%.

Regarding `CN(C(N)=O)c1cccc(NC(=O)CCS)c1`, the percent labeling was determined as 38.7%.

As to `O=C(CCS)Nc1cnn(C2CCCC2)c1`, the percent labeling amounted to 41.6%.

With `CCc1nn(C)c(CC(=O)NCCS)c1Cl`, the percent labeling was determined as 46.7%.

The molecule `CCCN1C(=O)c2ccccc2N2C(=O)CCC12C(=O)NCCS` (stereo unspecified) registered a percent labeling of 33.7%.

Consider `O=C(NCCS)c1cc(Br)c2c(c1)C(=O)NCCO2`, for which the percent labeling was 47%.

Molecule `Cc1ccc(-c2nc(C)c(C(=O)NCCS)s2)c(F)c1` yielded a percent labeling of 23%.

The molecule `O=C(CCCn1nnc(-c2ccccc2)n1)NCCS` returned a percent labeling of 28.1%.

In turn, `COc1cccc(C2C(NC(=O)CCS)CCN2C2CC2)c1` (stereo unspecified) registered a percent labeling of 37.1%.

On to `O=C(CCS)NCC1CN(c2nncs2)CCO1` (stereo unspecified), for which the percent labeling is 38.7%.

Molecule `O=C(CCS)Nc1cccc2[nH]c(=O)ccc12` returned a percent labeling of 39.4%.

As to `O=C(NCCS)c1c(-n2cccc2)sc2c1CCC2`, the percent labeling was determined as 16.8%.

Molecule `O=C(CN1C(=O)C(F)(F)Oc2ccccc21)NCCS` came in with a percent labeling of 28.2%.

`O=C(NCCS)C(O)c1cccnc1` (stereo unspecified) had a percent labeling of 35.8%.

`O=C(CCS)N1CCOc2cc(Br)c(F)cc21` registered a percent labeling of 33.1%.

On to `CC(C)(c1cccc(NC(=O)CCS)c1)C(F)(F)F`, for which the percent labeling turned out to be 25.9%.

For `O=C(NCCS)c1cc2c(ccc3ccccc32)o1`, the percent labeling was found to be 17.6%.

The molecule `O=C(CCS)NC1CS(=O)(=O)C2CN(Cc3ccccc3)CC12` (stereo unspecified) registered a percent labeling of 33.8%.

`CCCC(NC(=O)c1cc2ccccc2s1)C(=O)NCCS` (stereo unspecified) returned a percent labeling of 16.9%.

Molecule `Cc1ccc(CN(CCO)C(=O)CCS)o1` displayed a percent labeling of 27.9%.

The molecule `O=C(CCS)Nc1cccc(Cc2nc3cccc(Cl)c3s2)c1` showed a percent labeling of 22.9%.

The molecule `Cn1c(=O)n(CC(=O)NCCS)c2ccccc21` displayed a percent labeling of 42.6%.

Turning to `O=C(CCS)N1C[C@@H]2C[C@H](C1)[C@@H]1CCCC(=O)N1C2`, the percent labeling turned out to be 21.8%.

`Cn1cc(CNC(=O)CCS)c(=O)[nH]c1=O` had a percent labeling of 24.6%.

In turn, `Cc1cc(NC(=O)CCS)nn1CCC#N` came in with a percent labeling of 42.9%.

Consider `O=C(NCCS)C1Cc2cc(Br)cnc2C1` (stereo unspecified), for which the percent labeling came to 44.4%.

`O=C(NCCS)C1CCN(S(=O)(=O)c2ccc3[nH]c(=O)cnc3c2)CC1`: the percent labeling turned out to be 23.3%.

Values taken from PubChem BioAssay AID2202238 (Ras Initiative Chemistry Research Team, Frederick National …, 2025).
